# Measurements: PubChem BioAssay AID588342 (National Center for Advancing Translational Sciences (NCATS), 2011)
# Values joined by “and” are separate entries in the source; they are usually repeats but may differ in a detail not shown here. Identical values can stand only once. The campaign covered roughly 360,000 compounds. About 25,000 (6.9%) were called active. The inconclusive results got no clear call from the source; some entries with a clear call stand among them for comparison. Calls follow the shape of the dose curve; as a rule, active = well fitted inhibition curve with a large enough effect; inconclusive = small, poorly fitted or top-dose-only effect; inactive = flat fitted curve, though single readings scatter. A potency beside an inconclusive call is a rough fit, not a confirmed value.
# Molecular target: Luciferin 4-monooxygenase (Photinus pyralis) (UniProt P08659)
# Chain of UniProt P08659 (P08659 whole entry, looked up): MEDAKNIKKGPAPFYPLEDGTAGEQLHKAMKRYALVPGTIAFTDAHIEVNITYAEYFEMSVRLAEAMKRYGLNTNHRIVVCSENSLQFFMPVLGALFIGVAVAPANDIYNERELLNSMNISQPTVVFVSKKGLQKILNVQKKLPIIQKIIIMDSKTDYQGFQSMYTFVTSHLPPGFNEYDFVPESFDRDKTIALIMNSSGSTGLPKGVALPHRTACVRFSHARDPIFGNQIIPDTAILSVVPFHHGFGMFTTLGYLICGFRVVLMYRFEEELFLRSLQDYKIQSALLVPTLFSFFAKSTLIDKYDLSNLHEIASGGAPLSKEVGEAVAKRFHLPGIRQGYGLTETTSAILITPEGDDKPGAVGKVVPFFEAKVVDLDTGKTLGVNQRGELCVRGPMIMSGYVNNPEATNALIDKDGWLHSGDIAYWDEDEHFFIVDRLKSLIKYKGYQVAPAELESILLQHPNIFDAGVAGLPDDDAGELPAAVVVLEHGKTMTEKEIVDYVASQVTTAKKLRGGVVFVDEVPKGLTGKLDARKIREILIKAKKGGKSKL
# Experiment: qHTS profiling assay for firefly luciferase inhibitor/activator using purifed enzyme and Km concentrations of substrates (counterscreen for miR-21 project); also: nearly all actives have a fitted effect of over 55% in size;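 as to activity change, negative = inhibition: plate controls were vehicle for no effect and reference inhibitor for full effect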
# Details: purified FLuc, luminescence inhibition; activity change, negative = inhibition: at 57.5 µM (top of the series)
# Procedure, shortened: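 Purified P. pyralis luciferase, 10 nM final, with Km-level 10 uM D-luciferin and 10 uM ATP in 50 mM Tris acetate pH 7.5, 10 mM Mg acetate, 0.01% Tween-20, 0.05% BSA; 6-point qHTS titration about 60 µM downward; luminescence read.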
# Potency is read from the fitted curve at half-maximal effect; tags tell the direction and shape of the fitted curve.
SMILES,Potency,"activity change, negative = inhibition"
CCCc1nnc(NC(=O)c2cc(=O)c3cc(Cl)ccc3o2)s1,"inconclusive: 16.9 µM [inhibitor, partial curve]",–
Cc1ccc(-c2cc(N)n[nH]2)cc1,"inconclusive: 12 µM [inhibitor, partial curve, poor fit]",–
COc1ccc(C(=O)Nc2ccc3c(c2)nc(CN2CCCC2)n3C)cc1,"inconclusive: 37.9 µM [inhibitor, single point]",–
CCOC(=O)/C(C#N)=C/c1cn(CCC(=O)O)nc1-c1cccc(Br)c1,"inconclusive: 26.9 µM [inhibitor, partial curve, poor fit]",–
COC(=O)c1c(NC(=O)Nc2ccc(Cl)cc2)sc(C)c1C,inactive,–
COCCN(C(=O)C(C)C)c1nnc(-c2ccc(C)cc2)s1,"inconclusive: 23.9 µM [inhibitor, partial curve, poor fit]",–
CCOC(=O)CC(=O)CSc1ncnc2c1nnn2-c1ccc(F)cc1,"inconclusive: 30.1 µM [inhibitor, single point]",–
CCOc1ccc(NC(=O)CSc2nnnn2CC(=O)O)cc1,"inconclusive: 33.8 µM [inhibitor, partial curve, poor fit]",–
O=C1Nc2ccccc2S/C1=C\C(=O)N1CCCC1,active: 12 µM,–
O=C(NCCOc1ccccc1F)c1cc(F)c(F)cc1Cl,active: 3.01 µM,–
OCCCNc1cc(-c2ccccc2)nc2cc(-c3ccc(F)cc3)nn12,"inconclusive: 23.9 µM [inhibitor, single point]",–
COc1ccc2[nH]c(=O)c(-c3nnn(-c4ccccc4)n3)cc2c1,"inconclusive: 15.1 µM [inhibitor, partial curve]",–
Brc1ccc(CN2CC[C@H]3C=CCc4cccc(c43)C2)cc1,–,inactive: -0.129%
CN(C)c1ccc(NC(=O)Cn2cc(S(=O)(=O)Cc3cccc(Cl)c3)c3ccccc32)cc1,"inconclusive: 21.3 µM [inhibitor, partial curve, poor fit]",–
Cc1cc(C)c(O)c(-c2cc(C(=O)Nc3cccnc3)[nH]n2)c1,active: 19 µM,–
CSC1=NC(C)(C)C=C(/C=C/c2ccc(Cl)cc2Cl)N1,"inconclusive: 23.9 µM [inhibitor, single point]",–
CC(C)=C1SC(N2CCN(c3ccc(C)c(Cl)c3)CC2)=NC1=O,–,inactive: -0.828%
CCOc1ccc(NC(=O)c2[nH]c(C)c(C(C)=O)c2C)cc1,active: 15.1 µM,–
O=C(/C=C/c1ccc2c(c1)OCO2)c1ccc(F)cc1,active: 4.26 µM,–
Cc1ccc(OCCNS(=O)(=O)c2cccs2)cc1,"inconclusive: 21.3 µM [inhibitor, partial curve, poor fit]",–
CCOC(=O)c1cc(S(=O)(=O)N2CCN(c3ccc(C)cc3C)CC2)[nH]n1,"inconclusive: 26.9 µM [inhibitor, partial curve]",–
CCOc1cccc(OCCCOc2ccccc2)c1,"inconclusive: 37.9 µM [inhibitor, partial curve, poor fit]",–
Cc1ccc(C)c(NC(=O)CSC2=Nc3ccccc3N=C(c3ccc(F)cc3)C2)c1,–,inactive: -5.62%

SMILES,Potency,"activity change, negative = inhibition"
O=C(Nc1ccc(Cl)c(Cl)c1)c1ccccc1NC(=O)C1CC=CCC1C(=O)O (configuration not stated),"inconclusive: 37.9 µM [inhibitor, partial curve, poor fit]",–
CCOc1ccccc1Nc1ncnc2c1cnn2-c1ccccc1,–,inactive: -13.3%
Cc1ccc(OCC(=O)N2N=C(c3cccnc3)CC2(O)C(F)(F)F)cc1C (configuration not stated),"inconclusive: 37.9 µM [inhibitor, partial curve, poor fit]",–
CSC(=CC(=O)c1ccc(F)cc1)SC,"inconclusive: 16.9 µM [inhibitor, partial curve]",–
C=CCOc1ccc(/C=C/C(=O)OCC(=O)N(C)CC(=O)Nc2ccccc2Cl)cc1,"inconclusive: 15.1 µM [inhibitor, partial curve]",–
CC(C)(C)OC(=O)NCCCCCc1cn([C@@H](CO)C(=O)NCCCCCCCCCCC(=O)N2CCN(C(=O)OC(C)(C)C)CC2)nn1,"inconclusive: 26.9 µM [inhibitor, single point]",–
O=C(COC(=O)c1c2ccccc2cc2ccccc12)NCC(F)(F)F,"inconclusive: 19 µM [inhibitor, partial curve, poor fit]",–
COc1ccc(-c2cc(C(F)F)n3ncc(C(=O)N4CCSCC4)c3n2)cc1,–,inactive: -1.99%
CC(=O)Oc1ccc(-c2cccc(C(=O)OCC(=O)N(C)c3ccccc3)c2)cc1,"inconclusive: 26.9 µM [inhibitor, single point]",–
O=C(Nc1c(C(=O)O)oc2ccccc12)c1ccc(C(F)(F)F)cc1,active: 9.53 µM,–
Oc1ccc(Br)cc1-c1cc(-c2ccco2)[nH]n1,"inconclusive: 37.9 µM [inhibitor, partial curve, poor fit]",–
COc1ccc(Cl)cc1NC(=S)NNC(=O)CC(C)C,"inconclusive: 23.9 µM [inhibitor, single point]",–
CCOc1ccc2nc(N3CCCC(C(=O)NC4CCCC4)C3)sc2c1 (configuration not stated),active: 3.01 µM,–
O=c1c(-c2ccc(O)cc2)coc2cc(OC3OC(CO)C(O)C(O)C3O)ccc12 (configuration not stated),"inconclusive: 26.9 µM [inhibitor, partial curve]",–
O=C(Nc1ccc(Cl)c(Cl)c1)c1ccncc1,"inconclusive: 21.3 µM [inhibitor, single point]",–
O=C(CSc1cn(CC(=O)N2CCOCC2)c2ccccc12)Nc1ccccc1,–,inactive: -4.95%
CCn1c(Cc2ccccc2)nnc1SCc1cccc(C(=O)O)c1,"inconclusive: 21.3 µM [inhibitor, single point]",–
O=C(COCc1cc(-c2ccc3c(c2)OCO3)on1)NCc1ccccc1Cl,"inconclusive: 13.5 µM [inhibitor, partial curve]",–
CCOC(=O)N/N=C\c1ccc(C)s1,"inconclusive: 30.1 µM [inhibitor, partial curve, poor fit]",–
CN(NC1OC(=O)c2ccccc21)c1ncc(C(F)(F)F)cc1Cl (configuration not stated),"inconclusive: 26.9 µM [inhibitor, partial curve, poor fit]",–
COc1cccc(N2C(=O)C3C(C2=O)C2C=CC3C23CC3)c1 (configuration not stated),"inconclusive: 26.9 µM [inhibitor, partial curve, poor fit]",–
NNC(=O)c1ccc(CSc2cccc3cccnc23)cc1,"inconclusive: 37.9 µM [inhibitor, partial curve, poor fit]",–
O=C(Nc1ccc(F)cc1F)c1ccc2c(O)c(S(=O)(=O)c3ccc(Cl)cc3)c(=O)[nH]c2c1,"inconclusive: 12 µM [inhibitor, partial curve]",–

SMILES,Potency,"activity change, negative = inhibition"
CSc1ccc(S(=O)(=O)NCC(=O)OCC(=O)N2CCCC2=O)cc1[N+](=O)[O-],–,inactive: -0.548%
O=C(O)c1csc(-c2cccc(Cl)c2)n1,"inconclusive: 37.9 µM [inhibitor, partial curve, poor fit]",–
CC(C)C(=O)OC/C(O)=C(\C#N)c1nc2ccccc2[nH]1,–,inactive: -6.57%
O=C(N/N=C/c1ccncc1)c1ccccc1,"inconclusive: 16.9 µM [inhibitor, partial curve, poor fit]",–
O=C(COc1ccccc1[N+](=O)[O-])Nc1cccc(-c2nc3ccccc3s2)c1,"inconclusive: 12 µM [inhibitor, partial curve, poor fit]",–
O=c1cc(-c2ccc3c(c2)OCO3)oc2ccccc12,"inconclusive: 2.13 µM [inhibitor, full curve]",–
Cc1ccc2c(c1)c1c3n2CCN(C(=O)CCl)C3CCC1 (configuration not stated),"inconclusive: 26.9 µM [inhibitor, partial curve, poor fit]",–
O=C(CSc1nnc(-c2ccccc2)o1)N1CCOCC1,"inconclusive: 37.9 µM [inhibitor, partial curve, poor fit]",–
O=C1C2C3C=CC(C4CC34)C2C(=O)N1/N=C/c1ccc(-c2cccc([N+](=O)[O-])c2)o1 (configuration not stated),"inconclusive: 23.9 µM [inhibitor, partial curve, poor fit]",–
C=CCn1c2ccccc2c(=O)c2cc(C#Cc3ccsc3)ccc21,active: 0.675 µM,–
Oc1c(Cl)cc(Cl)c(Cl)c1Cc1c(O)c(Cl)cc(Cl)c1Cl,"inconclusive: 13.5 µM [inhibitor, partial curve]",–
COc1ccc(C2=NN(CN3C(=O)C(=O)c4ccccc43)C(c3cccc([N+](=O)[O-])c3)C2)cc1 (configuration not stated),–,inactive: -3.19%
O=C(CN1C(=O)/C(=C/c2ccccc2)SC1=S)Nc1cccnc1,"inconclusive: 37.9 µM [inhibitor, single point]",–
COc1ccccc1NS(=O)(=O)c1cc(C(=O)N2CCCC2)ccc1F,–,inactive: 2.42%
CCCN(CCC)S(=O)(=O)c1ccc(C(=O)Nc2nnc(COC)o2)cc1,"inconclusive: 16.9 µM [inhibitor, partial curve, poor fit]",–
O=C(COc1cc([N+](=O)[O-])cc2cccnc12)NCCC1=CCCCC1,–,inactive: 0.118%
O=C(CCS(=O)(=O)c1cc(Br)cc2c1N(C(=O)C1CC1)CC2)NCc1ccccc1Cl,–,inactive: -3.47%
N#C/C(=C\c1cccc([N+](=O)[O-])c1)C(=O)NCc1ccc(Cl)cc1,"inconclusive: 26.9 µM [inhibitor, partial curve, poor fit]",–
Cc1nc2cc(C(=O)OCC(=O)NC(C)C(C)C)ccc2n1-c1ccccc1 (configuration not stated),"inconclusive: 13.5 µM [inhibitor, partial curve]",–
COC(=O)c1sccc1S(=O)(=O)N(CC(=O)Nc1c(C)cccc1C)c1ccc(C)c(C)c1,–,inactive: 1.11%
COC(=O)C(C)n1nnc2sc(-c3ccccc3)cc2c1=O (configuration not stated),"inconclusive: 8.49 µM [inhibitor, full curve] and inconclusive: 9.53 µM [inhibitor, partial curve]",–
